# Test results as given in the supplement of paper PMC8728848.
# This is one part of the list.
# B1: Cohesin-mDCIR (Macaca mulatta) (protein)
# chain: GLDDLDAVRIKVDTVNAKPGDTVRIPVRFSGIPSKGIANCDFVYSYDPNVLEIIEIEPGDIIVDPNPDKSFDTAVYPDRKIIVFLFAEDSGTGAYAITKDGVFATIVAKVKEGAPNGLSVIKFVEVGGFANNDLVEQKTQFFDGGVNVGDTTEPATPTTPVTTPTTTDDLDAASFQKYSQLLEKMTTKDLVHTTLECVKKNMTTEETAWSCCPKNWKPFSSNCYFISTESASWQKSEKDCARMEAHLLVINTREEQDFIFQNLQEESAYFVGLSDPEGQRHWQWVDRTPYNESSTFWHPHEPSDPDERCVVLNFRKTPKRWGWNDVHCIVHQRSVCEMMKIHLHHHHHH
# Tests used:
# Assay in all cases: glycan array binding signal (z-score within array); higher = stronger binding
# Details in all cases: glycan notation: IUPAC condensed, linker removed
# Fuc(a1-2)Gal = biological target: Fuc(a1-2)Gal
# In short: (§1)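 The binding signal is a Z-score computed within each array and averaged over linkers. Arrays of the same protein sequence at different concentrations or buffers were also averaged together. Data originate from 3228 arrays in the Consortium for Functional Glycomics database, kept only where the protein sequence was available.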
# Fuc(a1-2)Gal(b1-3)GalNAc = biological target: Fuc(a1-2)Gal(b1-3)GalNAc
# In short: as §1
# [1] = biological target: Fuc(a1-2)Gal(b1-3)GalNAc(a1-3)[Fuc(a1-2)]Gal(b1-4)Glc
# In short: as §1
# [2] = biological target: Fuc(a1-2)Gal(b1-3)GalNAc(a1-3)[Fuc(a1-2)]Gal(b1-4)GlcNAc
# In short: as §1
# [3] = biological target: Fuc(a1-2)Gal(b1-3)GalNAc(b1-3)Gal
# In short: as §1
# [4] = biological target: Fuc(a1-2)Gal(b1-3)GalNAc(b1-3)Gal(a1-4)Gal(b1-4)Glc
# In short: as §1
# [5] = biological target: Fuc(a1-2)Gal(b1-3)GalNAc(b1-4)[Neu5Ac(a2-3)]Gal(b1-4)Glc
# In short: as §1
# Fuc(a1-2)Gal(b1-3)GlcNAc = biological target: Fuc(a1-2)Gal(b1-3)GlcNAc
# In short: as §1
# [6] = biological target: Fuc(a1-2)Gal(b1-3)GlcNAc(b1-2)Man(a1-3)[Fuc(a1-2)Gal(b1-3)GlcNAc(b1-2)Man(a1-6)]Man(b1-4)GlcNAc(b1-4)GlcNAc
# In short: as §1
# [7] = biological target: Fuc(a1-2)Gal(b1-3)GlcNAc(b1-2)Man(a1-3)[Fuc(a1-2)Gal(b1-3)GlcNAc(b1-2)Man(a1-6)]Man(b1-4)GlcNAc(b1-4)[Fuc(a1-6)]GlcNAc
# In short: as §1
# [8] = biological target: Fuc(a1-2)Gal(b1-3)GlcNAc(b1-3)Gal(b1-4)Glc
# In short: as §1
# [9] = biological target: Fuc(a1-2)Gal(b1-3)GlcNAc(b1-3)GalNAc
# In short: as §1
# [10] = biological target: Fuc(a1-2)Gal(b1-3)GlcNAc(b1-3)[Fuc(a1-2)Gal(b1-3)GlcNAc(b1-6)]GalNAc
# In short: as §1
# [11] = biological target: Fuc(a1-2)Gal(b1-3)GlcNAc(b1-3)[Gal(b1-4)GlcNAc(b1-6)]Gal(b1-4)Glc
# In short: as §1
# [12] = biological target: Fuc(a1-2)Gal(b1-3)GlcNAc(b1-3)[Neu5Ac(a2-6)Gal(b1-4)GlcNAc(b1-6)]Gal(b1-4)Glc
# In short: as §1
# [13] = biological target: Fuc(a1-2)Gal(b1-3)GlcNAc6S
# In short: as §1
# [14] = biological target: Fuc(a1-2)Gal(b1-3)[Fuc(a1-4)]GlcNAc
# In short: as §1
# [15] = biological target: Fuc(a1-2)Gal(b1-3)[Fuc(a1-4)]GlcNAc(b1-2)Man(a1-3)[Fuc(a1-2)Gal(b1-3)[Fuc(a1-4)]GlcNAc(b1-2)Man(a1-3)]Man(b1-4)GlcNAc(b1-4)GlcNAc
# In short: as §1
# [16] = biological target: Fuc(a1-2)Gal(b1-3)[Fuc(a1-4)]GlcNAc(b1-2)Man(a1-3)[Fuc(a1-2)Gal(b1-3)[Fuc(a1-4)]GlcNAc(b1-2)Man(a1-6)]Man(b1-4)GlcNAc(b1-4)[Fuc(a1-6)]GlcNAc(b1-4)[Fuc(a1-6)]GlcNAc
# In short: as §1
# [17] = biological target: Fuc(a1-2)Gal(b1-3)[Fuc(a1-4)]GlcNAc(b1-3)[Fuc(a1-3)[Gal(b1-4)]GlcNAc(b1-6)]Gal(b1-4)Glc
# In short: as §1
# [18] = biological target: Fuc(a1-2)Gal(b1-3)[Fuc(a1-4)]GlcNAc(b1-3)[Gal(b1-4)GlcNAc(b1-6)]Gal(b1-4)Glc
# In short: as §1
# Fuc(a1-2)Gal(b1-4)Glc = biological target: Fuc(a1-2)Gal(b1-4)Glc
# In short: as §1
# Fuc(a1-2)Gal(b1-4)Glc6S = biological target: Fuc(a1-2)Gal(b1-4)Glc6S
# In short: as §1
# Fuc(a1-2)Gal(b1-4)GlcNAc = biological target: Fuc(a1-2)Gal(b1-4)GlcNAc
# In short: as §1
# [19] = biological target: Fuc(a1-2)Gal(b1-4)GlcNAc(b1-2)Man
# In short: as §1
# [20] = biological target: Fuc(a1-2)Gal(b1-4)GlcNAc(b1-2)Man(a1-3)[Fuc(a1-2)Gal(b1-4)GlcNAc(b1-2)Man(a1-6)]Man(b1-4)GlcNAc(b1-4)GlcNAc
# In short: as §1
# [21] = biological target: Fuc(a1-2)Gal(b1-4)GlcNAc(b1-2)Man(a1-3)[Fuc(a1-2)Gal(b1-4)GlcNAc(b1-2)Man(a1-6)]Man(b1-4)GlcNAc(b1-4)[Fuc(a1-6)]GlcNAc
# In short: as §1
# [22] = biological target: Fuc(a1-2)Gal(b1-4)GlcNAc(b1-2)[Fuc(a1-2)Gal(b1-4)GlcNAc(b1-4)]Man(a1-3)[Fuc(a1-2)Gal(b1-4)GlcNAc(b1-2)Man(a1-6)]Man(b1-4)GlcNAc(b1-4)GlcNAc
# In short: as §1
# [23] = biological target: Fuc(a1-2)Gal(b1-4)GlcNAc(b1-3)Gal(b1-4)GlcNAc
# In short: as §1
# [24] = biological target: Fuc(a1-2)Gal(b1-4)GlcNAc(b1-3)Gal(b1-4)GlcNAc(b1-2)Man(a1-3)[Fuc(a1-2)Gal(b1-4)GlcNAc(b1-3)Gal(b1-4)GlcNAc(b1-2)Man(a1-6)]Man(b1-4)GlcNAc(b1-4)GlcNAc
# In short: as §1
binder,measurement,setting,value
B1,glycan array binding signal (z-score),Fuc(a1-2)Gal,0.531
same,glycan array binding signal (z-score),Fuc(a1-2)Gal(b1-3)GalNAc,-0.338
same,glycan array binding signal (z-score),[1],-0.421
same,glycan array binding signal (z-score),[2],-0.43
same,glycan array binding signal (z-score),[3],0.216
same,glycan array binding signal (z-score),[4],-0.245
same,glycan array binding signal (z-score),[5],0.163
same,glycan array binding signal (z-score),Fuc(a1-2)Gal(b1-3)GlcNAc,-0.041
same,glycan array binding signal (z-score),[6],-0.372
same,glycan array binding signal (z-score),[7],-0.352
same,glycan array binding signal (z-score),[8],-0.358
same,glycan array binding signal (z-score),[9],-0.291
same,glycan array binding signal (z-score),[10],-0.376
same,glycan array binding signal (z-score),[11],-0.452
same,glycan array binding signal (z-score),[12],-0.318
same,glycan array binding signal (z-score),[13],-0.407
same,glycan array binding signal (z-score),[14],-0.153
same,glycan array binding signal (z-score),[15],0.232
same,glycan array binding signal (z-score),[16],-0.253
same,glycan array binding signal (z-score),[17],-0.151
same,glycan array binding signal (z-score),[18],-0.246
same,glycan array binding signal (z-score),Fuc(a1-2)Gal(b1-4)Glc,0.107
same,glycan array binding signal (z-score),Fuc(a1-2)Gal(b1-4)Glc6S,-0.318
same,glycan array binding signal (z-score),Fuc(a1-2)Gal(b1-4)GlcNAc,0.219
same,glycan array binding signal (z-score),[19],-0.301
same,glycan array binding signal (z-score),[20],-0.037
same,glycan array binding signal (z-score),[21],0.245
same,glycan array binding signal (z-score),[22],-0.119
same,glycan array binding signal (z-score),[23],-0.033
same,glycan array binding signal (z-score),[24],-0.215
